# Measurements taken from the supplement of paper PMC11369174, “Proteome-scale characterisation of motif-based interactome rewiring by disease mutations” (Molecular Systems Biology, 2024).
# The list shows a part of the results. These are enrichments in a pooled selection; single values are uncertain.
# T1: EPS15_EH__P42566_121_215
# T1 chain: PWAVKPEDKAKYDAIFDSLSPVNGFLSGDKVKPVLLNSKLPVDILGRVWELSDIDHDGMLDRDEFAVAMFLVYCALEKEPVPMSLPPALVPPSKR
# T2: EPHA3_Pkinase__P29320_606_947
# T2 chain: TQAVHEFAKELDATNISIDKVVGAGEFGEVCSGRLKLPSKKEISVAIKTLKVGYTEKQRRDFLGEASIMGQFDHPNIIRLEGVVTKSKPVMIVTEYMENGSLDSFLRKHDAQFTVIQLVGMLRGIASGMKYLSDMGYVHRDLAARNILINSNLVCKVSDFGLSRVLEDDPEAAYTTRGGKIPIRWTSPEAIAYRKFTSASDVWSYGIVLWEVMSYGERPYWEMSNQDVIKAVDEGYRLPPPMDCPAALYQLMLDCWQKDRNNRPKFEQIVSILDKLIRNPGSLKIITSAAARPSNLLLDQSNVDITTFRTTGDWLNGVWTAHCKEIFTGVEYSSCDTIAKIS
# T3: EPHB2_Pkinase__P29323_604_898
# T3 chain: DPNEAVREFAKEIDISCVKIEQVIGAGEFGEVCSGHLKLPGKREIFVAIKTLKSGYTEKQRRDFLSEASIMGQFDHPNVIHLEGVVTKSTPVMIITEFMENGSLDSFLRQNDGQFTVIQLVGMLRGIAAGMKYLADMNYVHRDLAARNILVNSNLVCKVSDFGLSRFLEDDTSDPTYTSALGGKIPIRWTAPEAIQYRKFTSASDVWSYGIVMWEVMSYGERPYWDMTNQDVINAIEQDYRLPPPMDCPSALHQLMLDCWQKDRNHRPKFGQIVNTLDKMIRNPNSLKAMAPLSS
# T4: EIF_DEAD__P60842_29_237
# T4 chain: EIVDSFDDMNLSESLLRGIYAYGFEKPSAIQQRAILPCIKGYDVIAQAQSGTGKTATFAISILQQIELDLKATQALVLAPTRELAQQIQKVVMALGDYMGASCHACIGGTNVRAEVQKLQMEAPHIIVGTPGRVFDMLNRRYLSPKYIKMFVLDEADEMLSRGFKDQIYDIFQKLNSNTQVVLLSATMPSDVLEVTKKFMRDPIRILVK
# T5: EIF3B_RRM__P55884_172_274
# T5 chain: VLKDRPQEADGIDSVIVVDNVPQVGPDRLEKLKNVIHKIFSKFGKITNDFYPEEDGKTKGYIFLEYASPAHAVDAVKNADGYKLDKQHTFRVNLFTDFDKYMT
# T6: DOK1_PTB__Q99704_151_256
# T6 chain: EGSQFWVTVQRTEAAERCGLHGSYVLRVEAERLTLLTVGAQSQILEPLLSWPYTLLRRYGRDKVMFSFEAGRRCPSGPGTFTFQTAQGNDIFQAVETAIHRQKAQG
# T7: MSN_FERM_1_P26038_1_322
# T7 chain: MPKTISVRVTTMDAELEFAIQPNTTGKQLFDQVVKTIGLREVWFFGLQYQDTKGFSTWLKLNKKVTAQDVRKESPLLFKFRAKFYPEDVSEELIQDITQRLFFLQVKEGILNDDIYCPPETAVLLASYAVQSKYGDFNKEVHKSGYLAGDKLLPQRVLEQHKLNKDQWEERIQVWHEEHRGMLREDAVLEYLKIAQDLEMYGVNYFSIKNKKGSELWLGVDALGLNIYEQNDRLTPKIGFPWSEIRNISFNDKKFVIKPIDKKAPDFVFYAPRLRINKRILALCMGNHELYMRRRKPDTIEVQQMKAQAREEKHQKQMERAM
# T8: RDX_FERM_1_P35241_5_295
# T8 chain: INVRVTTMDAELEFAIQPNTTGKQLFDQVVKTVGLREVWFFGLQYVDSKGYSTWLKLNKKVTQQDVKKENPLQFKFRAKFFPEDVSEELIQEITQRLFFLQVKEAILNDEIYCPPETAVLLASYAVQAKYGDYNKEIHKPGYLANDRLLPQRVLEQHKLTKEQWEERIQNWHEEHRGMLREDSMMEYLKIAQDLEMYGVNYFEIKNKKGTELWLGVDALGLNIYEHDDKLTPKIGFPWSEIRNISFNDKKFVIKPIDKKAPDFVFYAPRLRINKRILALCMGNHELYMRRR
# Molecular target: T1, EPS15_EH__P42566_121_215
# Assay: mean normalised NGS count of phage-displayed peptide after selection on bait (% of reads); baits are purified protein domains named by gene / domain / UniProt id / residues; peptides come from disordered regions of human proteins; higher = stronger enrichment / binding
# Conditions: replicate selections in which the peptide was seen: 3
row,Binder,mean normalised NGS count
1,INSINFDNPFYQKTTE [LDLR 818-833 mut P01130.V827F],0.0501
2,RAYLQSITPQGYSDSE [ZEB2 1110-1125 wt],0.0629
3,GTPTSEQNPFLFQEGK [ANK2 3092-3107 wt],0.13
4,GEQNPFLFQEGKLFEM [ANK2 3096-3111 mut Q01484.S3096G],0.0121

# Molecular target: EIF4E_eIF4E__P06730_1_217, P06730
# Sequence (P06730 whole entry): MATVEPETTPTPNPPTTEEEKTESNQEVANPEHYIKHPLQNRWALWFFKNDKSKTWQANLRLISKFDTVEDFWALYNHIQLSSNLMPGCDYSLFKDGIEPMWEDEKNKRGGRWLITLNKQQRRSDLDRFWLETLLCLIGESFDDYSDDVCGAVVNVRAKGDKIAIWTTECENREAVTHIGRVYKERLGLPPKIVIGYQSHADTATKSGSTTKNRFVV
# Assay: as above
# Conditions: replicate selections in which the peptide was seen: 3
row,Binder,mean normalised NGS count
1,LIRTTFTSAQLKELER [PHOX2A 100-115 mut Q99453.R100L],0.0687
2,TPALRTPSEYARPHVM [ATN1 1250-1265 mut Q9P2R6.L1256P],0.259
3,LIRTTFTSAQLKELER [PHOX2B 100-115 mut Q99453.R100L],0.0687

# Molecular target: T2, EPHA3_Pkinase__P29320_606_947
# Assay: as above
# Conditions: replicate selections in which the peptide was seen: 2
row,Binder,mean normalised NGS count
1,NLYWLVSKLDRLEASS [RYR1 542-557 mut P21817.D544Y],0.0383
2,MAQMAITAAGVAVGSA [CHCHD10 56-71 mut Q9Y6H1.T61I],0.133
3,ADALWWRLITLTTIGY [KCNQ2 265-280 mut O43526.G271R],10.9
4,EVARKLVIIDSDLERA [TPM1 164-179 mut P09493.E173D],0.144

# Molecular target: T3, EPHB2_Pkinase__P29323_604_898
# Assay: as above
# Conditions: replicate selections in which the peptide was seen: 3
row,Binder,mean normalised NGS count
1,YTDAPFPKWMHWALIA [ELOVL4 238-253 wt],0.0726
2,WLSHYWIPKWINATDP [ASNS 532-547 mut P08243.M538I],9.77
3,EVARKLVIIDSDLERA [TPM1 164-179 mut P09493.E173D],0.491

# Molecular target: T2, EPHA3_Pkinase__P29320_606_947
# Assay: as above
# Conditions: replicate selections in which the peptide was seen: 3
row,Binder,mean normalised NGS count
1,WLSHYWIPKWINATDP [ASNS 532-547 mut P08243.M538I],0.51
2,TVAKLVEAHTNFGFQP [SCNN1B 577-592 mut P51168.E580K],0.873

# Molecular target: T4, EIF_DEAD__P60842_29_237
# Assay: as above
# Conditions: replicate selections in which the peptide was seen: 2
row,Binder,mean normalised NGS count
1,ALLLPPSPRPSPRVHL [BCOR 330-345 wt],0.119

# Molecular target: T5, EIF3B_RRM__P55884_172_274
# Assay: as above
# Conditions: replicate selections in which the peptide was seen: 3
row,Binder,mean normalised NGS count
1,WSLPPWLPLGLLLWSG [OSTM1 12-27 mut Q86WC4.C12W],1.9

# Same assay, conditions: replicate selections in which the peptide was seen: 6
row,Binder,mean normalised NGS count
1,SMGFSDEGSWLTRLLQ [SQSTM1 403-418 mut Q13501.G411S],22

# Molecular target: T6, DOK1_PTB__Q99704_151_256
# Assay: as above
# Conditions: replicate selections in which the peptide was seen: 5
row,Binder,mean normalised NGS count
1,ALLGGSEIWRDIDFSH [TYR 187-202 mut P14679.A201S],6.03
2,NGWSQAYYFENPADSE [PANK2 355-370 mut Q9BZ23.R357W],0.278
3,ALLGGYEIWRDIDFAH [TYR 187-202 mut P14679.S192Y],0.34

# Molecular target: EZR_FERM_1_P15311_2_295
# Sequence (chain, as listed by the source): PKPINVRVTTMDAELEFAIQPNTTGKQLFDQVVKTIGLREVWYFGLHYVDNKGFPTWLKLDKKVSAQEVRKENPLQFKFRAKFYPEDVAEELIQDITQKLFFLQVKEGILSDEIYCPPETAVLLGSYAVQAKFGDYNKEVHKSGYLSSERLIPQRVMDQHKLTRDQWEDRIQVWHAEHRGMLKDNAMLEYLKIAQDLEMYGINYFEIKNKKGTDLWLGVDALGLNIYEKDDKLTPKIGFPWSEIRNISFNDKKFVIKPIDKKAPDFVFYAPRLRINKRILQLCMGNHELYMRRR
# Assay: as above
# Conditions: replicate selections in which the peptide was seen: 5
row,Binder,mean normalised NGS count
1,NGWSQAYYFENPADSE [PANK2 355-370 mut Q9BZ23.R357W],0.22

# Molecular target: T7, MSN_FERM_1_P26038_1_322
# Assay: as above
# Conditions: replicate selections in which the peptide was seen: 6
row,Binder,mean normalised NGS count
1,NGWSQAYYFENPADSE [PANK2 355-370 mut Q9BZ23.R357W],0.345

# Molecular target: T8, RDX_FERM_1_P35241_5_295
# Assay: as above
# Conditions: replicate selections in which the peptide was seen: 4
row,Binder,mean normalised NGS count
1,NGWSQAYYFENPADSE [PANK2 355-370 mut Q9BZ23.R357W],0.175

# Molecular target: EIF4E_eIF4E__P06730_1_217, P06730
# Assay: as above
# Conditions: replicate selections in which the peptide was seen: 6
row,Binder,mean normalised NGS count
1,QVKYLARELIELRNKV [TFG 101-116 mut Q92734.R106C],2.37

# Molecular target: T1, EPS15_EH__P42566_121_215
# Assay: as above
# Conditions: replicate selections in which the peptide was seen: 2
row,Binder,mean normalised NGS count
1,NFDNPIYQKTTEDEVH [LDLR 822-837 mut P01130.V827I],0.00756

# Molecular target: EIF4E_eIF4E__P06730_1_217, P06730
# Assay: as above
# Conditions: replicate selections in which the peptide was seen: 2
row,Binder,mean normalised NGS count
1,LISLPAVPQGGSQPGP [SZT2 1834-1849 mut Q5T011.R1839C],0.501

# Same assay, conditions: replicate selections in which the peptide was seen: 5
row,Binder,mean normalised NGS count
1,LESSQVKYLARELIEL [TFG 97-112 mut Q92734.R106C],3.14

# Molecular target: T4, EIF_DEAD__P60842_29_237
# Assay: as above
# Conditions: replicate selections in which the peptide was seen: 4
row,Binder,mean normalised NGS count
1,WLFHTQQLLQMQPKVL [KMT2D 3513-3528 mut O14686.L3525P],3.28

# Same assay, conditions: replicate selections in which the peptide was seen: 6
row,Binder,mean normalised NGS count
1,VKIERSDQIYWYWPED [TTN 2116-2131 mut Q8WZ42.R2123Q],32.6

# Molecular target: T3, EPHB2_Pkinase__P29323_604_898
# Assay: as above
# Conditions: replicate selections in which the peptide was seen: 2
row,Binder,mean normalised NGS count
1,WQFFSALFSSSSSPPP [MAPK8IP3 573-588 mut Q9UPT6.R578C],1.72
